Measurements reported in PubChem BioAssay AID720542 (National Center for Advancing Translational Sciences (NCATS), 2013).
In all, about 360,000 compounds went through this assay and about 740 (0.21%) were called active. Inconclusive results, whose numbers are uncertain, are shown with a selection of clear calls. Calls follow the shape of the dose curve; as a rule, active = well fitted inhibition curve with a large enough effect; inconclusive = small, poorly fitted or top-dose-only effect; inactive = no such curve, though single readings can be large or run the other way. No potency is given beside an inconclusive call; the fits are too rough.

These molecules were tested on Plasmodium falciparum AMA1 (3D7) - RON2 peptide interaction (assay: qHTS for Inhibitors of AMA1-RON; Towards Development of Antimalarial Drug Lead: Primary Screen). Details: AlphaScreen AMA1-biotinylated RON2 peptide binding; activity change, negative = inhibition: at 58.2 µM (top of the series) unless noted.
Method in brief: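 AMA1 (3D7) with his tag at 25 nM final met compounds first, then biotinylated RON2 peptide at 25 nM; detection used donor plus acceptor beads, 10 µg/mL apiece, read by AlphaScreen after 30 min at room temperature.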
Also: nearly all actives have a fitted effect of over 45% in size.
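For activity change, negative = inhibition in this document: 0% = vehicle wells and -100% = peptide control.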
Potency is read from the fitted curve at half-maximal effect; tags tell the direction and shape of the fitted curve.

| Compound | Potency | activity change, negative = inhibition |
| --- | --- | --- |
| CC(=O)C1=C(c2ccccc2)NC(=S)NC1c1ccc(O)c(O)c1 (stereo unspecified) | inconclusive [inhibitor, single point] | – |
| CC/C(=C\c1ccc(N(C)C)cc1)c1ccncc1 | inconclusive [inhibitor, partial curve] | – |
| Cc1cc(C)cc(NC(=O)c2cccc(NC(=O)c3ccco3)c2)c1 | inconclusive [inhibitor, single point] | – |
| C=CCNC(=S)NNC(=O)c1ccc(=O)n(Cc2ccccc2)c1 | – | inactive: 55.1% |
| Cc1ccc(C(=O)NN2C(=O)/C(=C/c3cccn3C)SC2=S)cc1 | inconclusive [inhibitor, partial curve] | – |
| COc1ccc2cc1Oc1ccc(cc1)C[C@H]1c3cc(c(OC)cc3CCN1C)Oc1c(O)c(OC)cc3c1[C@H](C2)N(C)CC3 | inconclusive [inhibitor, single point] | – |
| CC(C)(c1ccccc1)c1ccc(OCCN2CCOCC2)cc1 | inconclusive [inhibitor, single point] | – |
| CCCCNc1nc2ccccc2n1CC(=O)N1CCc2ccccc2C1 | – | inconclusive: -11.7% [inhibitor] |
| O=C(Cc1ccc(Cl)cc1)Nc1ccc(-c2nnc(-c3ccco3)o2)cc1 | inconclusive [inhibitor, single point] | – |
| c1ccc(Oc2cccc(OCCCCN3CCCC3)c2)cc1 | inconclusive [inhibitor, single point] | – |
| CCOc1ccccc1N1CCN(C(=O)c2ccc3[nH]c4c(c3c2)CCCC4)CC1 | inconclusive [inhibitor, single point] | – |
| Cc1cccn2c(=O)c(C(=O)NC3CC(C)CC(C)(C)C3)c(O)nc12 (stereo unspecified) | – | inactive: -4.84% |
| Cc1cc(C)c2sc(N(CCCN(C)C)C(=O)COc3ccc(Cl)cc3)nc2c1 | inconclusive [inhibitor, single point] | – |
| COc1ccc(Br)cc1CNc1ccccc1 | inconclusive [inhibitor, single point] | – |
| Cc1ccc(/C=C2\Sc3ccccc3C2=O)s1 | inconclusive [inhibitor, partial curve] | – |
| CCC(CC)N1CCN(S(=O)(=O)c2ccc(OC)cc2)CC1 | inconclusive [inhibitor, partial curve] | – |
| O=C(O)c1ccc(NC2=C/C(=N/S(=O)(=O)c3ccccc3)c3ccccc3C2=O)cc1 | inconclusive [inhibitor, single point] | – |
| CC1CCN(C2=C(NS(=O)(=O)c3ccccc3)C(=O)c3ccccc3C2=O)CC1 | inconclusive [inhibitor, partial curve] | – |
| CN(C)CCCNC(=O)C[C@H]1C[C@H](C(=O)N2CCCCC2)[C@@]2(CCc3ccccc3)c3[nH]c4cc(-c5ccco5)ccc4c3CCN2C1=O | inconclusive [inhibitor, single point] | – |
| CCc1nc(SCC(=O)Nc2cc(OC)ccc2OC)c2c(C)c(C)sc2n1 | inconclusive [inhibitor, partial curve] | – |
| COc1ccc(NC(=O)c2ccc(S(=O)(=O)N(C)c3ccccc3)cc2)cn1 | – | inactive: -4.35% |
| COc1ccc(/C=N/Nc2cc(C)nc3ccc(Br)cc23)cc1 | inconclusive [inhibitor, partial curve] | – |
| O=C(NCc1ccco1)c1cc2c(s1)CSC2 | inconclusive [inhibitor, partial curve] | – |
| COC(=O)c1ccc(CN2CCc3ccccc32)cc1 | inconclusive [inhibitor, partial curve] | – |

| Compound | Potency | activity change, negative = inhibition |
| --- | --- | --- |
| Cc1ccc(C(=O)NCCCNC(=O)c2ccccc2F)cn1 | – | inactive: -5.49% |
| O=C(CNc1ccc(Br)cc1)NC(=O)NC1CCCCC1 | – | inactive: 1.27% |
| O=C(NC1CCCC1)c1ccc([N+](=O)[O-])s1 | – | inactive: 7.37% |
| CCCCCN(C(=O)NC(=O)Nc1nncs1)S(C)(=O)=O | inconclusive [inhibitor, single point] | – |
| CN(C)CCCNc1ncnc2sc(-c3ccccc3)cc12 | inconclusive [inhibitor, partial curve] | – |
| CNS(=O)(=O)c1cccc(C(=O)OCC(=O)/C=C2/N(C)c3ccccc3C2(C)C)c1 | inconclusive [inhibitor, partial curve] | – |
| COC(=O)CCC(=O)c1oc2ccccc2c1N | inconclusive [inhibitor, full curve] | – |
| O=C(NC(=S)NNC(=O)c1ccccc1O)c1cccnc1 | inconclusive [inhibitor, full curve] | – |
| Cc1ccc(C(=O)C[n+]2cc(-c3ccc(C)cc3)n3c2CCCCC3)cc1 | – | inactive: -0.837% |
| NC(=O)c1ccc(NC(=O)CCCNC(=O)c2ccc(Cl)cc2)cc1 | – | inactive: 9.42% |
| Cc1cccc(OCC(=O)N2CCN(Cc3ccc([N+](=O)[O-])cc3)CC2)c1 | inconclusive [inhibitor, single point] | – |
| CCc1ccc(NC(=O)C/C(C)=N/NC(=O)COc2ccccc2C)cc1 | – | inactive: 66.5% |
| O=C(N/N=C/c1ccccc1[N+](=O)[O-])c1ccc(CN2CCOCC2)cc1 | inconclusive [inhibitor, single point] | – |
| Clc1ccc(C(c2ccccc2Cl)C(Cl)Cl)cc1 (stereo unspecified) | – | inactive: 26.9% |
| COc1ccc(C(CCN2CCN(c3ccccc3)CC2)c2c(OC)cc(OC)c3c(-c4ccccc4)cc(=O)oc23)cc1 (stereo unspecified) | inconclusive [inhibitor, partial curve] | – |
| COC(=O)C1CCN(C(=O)c2cc(-c3ccco3)nc3ccccc23)CC1 | inconclusive [inhibitor, partial curve] | – |
| Cc1oc(S(=O)(=O)N2CCCCC2)cc1NC(=O)Nc1ccc(Cl)cc1 | – | inactive: -6.41% |
| CC(=O)OCC(=O)N1N=C(c2ccc3ccccc3c2)CC1c1ccccc1 (stereo unspecified) | – | inactive: 20.2% |
| COc1ccc(-c2nc3cnccn3c2Nc2ccc3c(c2)OCO3)cc1 | inconclusive [inhibitor, single point] | – |
| CCCCNC(=O)C(CC)(ONc1ccccc1C(F)(F)F)c1ccccc1OC (stereo unspecified) | inconclusive [inhibitor, single point] | – |
| Nn1c(SCc2cn3ccccc3n2)nnc1-c1ccncc1 | – | inactive: -9.33% |
| COc1cc(C(C)=O)ccc1OCC(O)CNCC(O)c1ccccc1 (stereo unspecified) | inconclusive [inhibitor, single point] | – |
| CN(C(=O)c1cnccn1)c1c(N)n(Cc2ccccc2)c(=O)[nH]c1=O | – | inactive: -19.3% |
| Nn1c(SCc2cc([N+](=O)[O-])cc3c2OCOC3)nnc1-c1ccccn1 | – | inactive: 23.9% |

| Compound | Potency | activity change, negative = inhibition |
| --- | --- | --- |
| COc1cc(/C=C2/C(=O)c3cccc([N+](=O)[O-])c3C2=O)c(Br)cc1O | inconclusive [inhibitor, single point] | – |
| Clc1ccc2c(NNc3ccccc3Cl)ccnc2c1 | inconclusive [inhibitor, partial curve] | – |
| CCn1c(C)c(C)c2cc(C(=O)N3CCc4ccccc4C3)ccc21 | inconclusive [inhibitor, single point] | – |
| COC(=O)c1ccccc1NC(=S)N1CCN(c2ccc(OC)cc2)CC1 | inconclusive [inhibitor, single point] | – |
| CNC(=S)N(Cc1ccc(OC)cc1)C1CC(=O)N(c2ccc(OC)cc2)C1=O (stereo unspecified) | inconclusive [inhibitor, single point] | – |
| O=C(CN1CCN(Cc2ccccc2)CC1)NCC1COc2ccccc2O1 (stereo unspecified) | inconclusive [inhibitor, single point] | – |
| COc1cc(CNCc2ccccn2)ccc1OCc1ccccc1Cl | – | inactive: -1.5% |
| O=C(NC1CCCCC1)c1ccc(-c2ccc(Cl)cc2)o1 | inconclusive [inhibitor, partial curve] | – |
| CCCCNCC1C(Oc2ccc(Cl)cc2)C(=O)N1c1ccccc1C (stereo unspecified) | inconclusive [inhibitor, partial curve] | – |
| C(=N/n1c2ccccc2c2ccccc21)/c1ccco1 | inconclusive [inhibitor, partial curve] | – |
| CCN(CC)CCOC(c1ccccc1)c1ccc(C)cc1 (stereo unspecified) | – | inactive: -3.15% |
| O=C(COc1ccc(Cl)cc1Cl)NC(=S)Nc1ccc(CN2CCOCC2)cc1 | – | inactive: 27.4% |
| COc1cccc2c1NC(C(=O)O)C1CC=CC21 (stereo unspecified) | inconclusive [inhibitor, full curve, poor fit] | – |
| O=C(c1cccc(F)c1)N1CCN(C(=O)c2cc(-c3ccc(Cl)cc3Cl)on2)CC1 | – | inactive: 6.57% |
| OCC1(Cc2cccc(Cl)c2)CCCN(Cc2ccc3cc(F)ccc3n2)C1 (stereo unspecified) | inconclusive [inhibitor, partial curve] | – |
| Cc1ccc(S(=O)(=O)Oc2ccc(/C=C(/NC(=O)c3ccccc3)C(=O)O)cc2)cc1 | – | inactive: -11% |
| COc1ccc(-c2nc(CSCC(=O)N3CCN(c4cccc(C)c4)C(C)C3)c(C)o2)cc1OC (stereo unspecified) | inconclusive [inhibitor, single point] | – |
| COc1ccc(Br)cc1C(=O)Nc1cc(C)cc(C)c1 | – | inactive: -0.2% |
| O=c1cc2oc3cc(O)c(O)cc3c(-c3ccccc3[N+](=O)[O-])c-2cc1O | active: 0.708 µM | – |
| CSc1ncccc1C(=O)NNC(=O)c1ccc(NS(=O)(=O)c2cccs2)cc1 | – | inactive: 49.5% |
| COc1ccc(Nc2ccccc2N)cc1 | inconclusive [inhibitor, single point] | – |
| COc1ccc(C(=O)N2CCN(Cc3cc(OC)ccc3OC)CC2)cc1 | inconclusive [inhibitor, single point] | – |
| CN1/C(=C\C(=O)COc2ccc3c(c2)OCO3)C(C)(C)c2ccccc21 | inconclusive [inhibitor, single point] | – |
